# Data taken from PMC12136788.
# The other results are listed elsewhere or left out.
# T1: UNK ZnF1-3 (human, UniProt Q9C0B0 31-174)
# T1 sequence: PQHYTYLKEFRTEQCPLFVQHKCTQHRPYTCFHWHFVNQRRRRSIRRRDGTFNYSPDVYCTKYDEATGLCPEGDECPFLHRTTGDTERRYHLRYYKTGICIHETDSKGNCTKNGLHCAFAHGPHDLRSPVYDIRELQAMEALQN
# B1: chr5:73476710:73476711:-_ENSMUSG00000070733_ENSMUST00000101127|mus_hu|FALSE|FALSE (ssRNA)
# RNA: GGGAGUUCUACAGUCCGACGAUCCAGAAUAGAGAUGUGGUAGAGGAGACAGCUGGCUGAGUACUCCAUCUGUUCUCUGAACCUCCAAUUUGUGAGCAUAGCGAAACAUCUUCGGUUCCAGAAUCUGUAAAAGUUGCAUAGCAACAACAGAGGAUUGAGCAUCA
# B2: chr18:42481571:42481572:+_ENSMUSG00000024491_ENSMUST00000091920|mus_mus|motif|central (ssRNA)
# RNA: GGGAGUUCUACAGUCCGACGAUCAAGGUAUUGGAUGAGUGCUGCUUCUGGAUCACCCUUAAAAGCAACCUGGAUAUUAACGGUGGUUCCAAAUUUGCUGAAGUGUUCGUUGAGCUUGGUAAUGUUGUUCAAUUCCUGGGGGAUCAACAGAGGAUUGAGCAUCA
# B3: chr7:97836282:97836283:+_ENSG00000164715_ENST00000297293|hu_hu|FALSE|FALSE (ssRNA)
# RNA: GGGAGUUCUACAGUCCGACGAUCAGGGAGGGAGGUGUGAGGUCGCCCAUGACCACAGGGGCUCGUGACGAUGUGACGAAGCUACACUGGGAGCACUCGGGCCCUUUCAAAGCCAGAAGAGAACCUGGGGCUUAAUGCAGAACGCAACAGAGGAUUGAGCAUCA
# B4: chr2:165877891:165877892:+_ENSMUSG00000027678_ENSMUST00000088095|mus_hu|FALSE|FALSE (ssRNA)
# RNA: GGGAGUUCUACAGUCCGACGAUCAAAUCUCUGAAUACACCUUCGGAUUAUAUCUUCAAAGCCAGGCCUCAUGGAGGAUCUCAGUGAAUUUGUAUCUAUAUUGACAACCUUUCCUGAAAGAUCAUGUCUGGUAAUAAAGCUCUCCAACAGAGGAUUGAGCAUCA
# B5: chr7:75932113:75932114:+_ENSG00000106211_ENST00000248553|hu_hu|hu_hu_hu_mus_False|98_108 (ssRNA)
# RNA: GGGAGUUCUACAGUCCGACGAUCCUGCGACCACUCCUCCGGCAGCCGGGGCACCCCGAAAGCUUGAUCGAAGAGGCGGCUGUGUGCAGGGUACCAGUCCCGGAAUGGUUCCCAGCUCGGGCUCCGCAGCAGCGAGAAGGGCACCAACAGAGGAUUGAGCAUCA
# B6: chr2:47389785:47389786:-_ENSG00000143933_ENST00000272298|hu_hu|FALSE|FALSE (ssRNA)
# RNA: GGGAGUUCUACAGUCCGACGAUCCAGUUCCCAAUUCCUUUGUUGUUAUAGUUCCAUCACCAUCUUUGUCAAAUAGUGAAAAAGCUUCUUUGAAUUCUGCAAUCUGCUCUUCAGUCAGUUGGUCAGCCAUGCUGCAAGCGCUACCAACAGAGGAUUGAGCAUCA
# Biological target: T1, UNK ZnF1-3
# Experiment: nsRBNS (natural sequence RNA bind-n-seq); RBNS binding buffer (assumed for nsRBNS): 25 mM Tris pH 7.5, 150 mM KCl, 3 mM MgCl2, 0.01% Triton X-100, 500 ug/ml BSA, 20 U/ml SUPERase-In, 4 C; UNK is unkempt and MSI1 is Musashi-1; names of the RNAs are library labels; protein concentration not given here; high values mean tight binding
row,Binder,binding signal
1,B1,0.664 enrichment R
2,B2,0.961 enrichment R
3,B3,1.28 enrichment R
4,B4,1.6 enrichment R
5,B5,1.07 enrichment R
6,B6,0.9 enrichment R
